# Data: patent US7745422B2, “Bisphosphonate compounds and methods for bone resorption diseases, cancer, bone pain, immune disorders, and infectious diseases” (The Board of Trustees of the University of Illinois, priority 2004, dated 2010)
# At least one compound was matched to its structure with a doubt left.
# Target: T. brucei FPPS (Trypanosoma brucei, UniProt Q57WF1)
# Assay: T. brucei FPPS inhibition
# Format: biochemical
# Conditions: Table 5; read-out: (6) T. brucei FPPS IC50
# Sequence of T. brucei FPPS (Q57WF1 entry or part of it): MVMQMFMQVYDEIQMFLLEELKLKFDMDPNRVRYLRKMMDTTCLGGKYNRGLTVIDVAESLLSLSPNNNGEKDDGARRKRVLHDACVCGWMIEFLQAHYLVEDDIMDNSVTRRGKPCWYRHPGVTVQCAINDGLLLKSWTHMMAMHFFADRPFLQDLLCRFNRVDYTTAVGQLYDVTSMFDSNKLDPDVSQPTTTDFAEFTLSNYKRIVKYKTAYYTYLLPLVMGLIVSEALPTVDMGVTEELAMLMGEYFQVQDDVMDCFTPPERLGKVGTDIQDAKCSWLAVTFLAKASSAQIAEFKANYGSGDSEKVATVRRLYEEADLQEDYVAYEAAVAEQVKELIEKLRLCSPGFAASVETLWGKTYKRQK
row,Structure (SMILES),IC50
1,CC(C)C#Cc1ccc[n+](CC(P(=O)([O-])O)P(=O)(O)O)c1 (stereo not drawn) [Compound 602],1000 nM
2,CCCCCCCCc1ccc[n+](CC(P(=O)([O-])O)P(=O)(O)O)c1 (stereo not drawn) [Compound 605],290 nM
3,O=P([O-])(O)C(C[n+]1cccc(F)c1)P(=O)(O)O (stereo not drawn) [Compound 477],890 nM
4,CC(C)=CCCC(C)=CCc1ccc[n+](CC(P(=O)([O-])O)P(=O)(O)O)c1 (stereo not drawn) [Compound 601],2100 nM
5,CCCCCCc1ccc[n+](CC(P(=O)([O-])O)P(=O)(O)O)c1 (stereo not drawn) [Compound 598],590 nM
6,"CC([n+]1ccccc1)C(O)(P(=O)([O-])O)P(=O)(O)O (single isomer, unassigned) [Compound 583]",4600 nM
7,O=P([O-])(O)C(C[n+]1ccccc1)P(=O)(O)O (stereo not drawn) [Compound 470],790 nM
8,O=P([O-])(O)C(C[n+]1cccc(Cl)c1)P(=O)(O)O (stereo not drawn) [Compound 526],540 nM
9,O=P([O-])(O)C(C[n+]1cccc(C(F)(F)F)c1)P(=O)(O)O (stereo not drawn) [Compound 511],760 nM
10,CC(C)=CCc1ccc[n+](CC(P(=O)([O-])O)P(=O)(O)O)c1 (stereo not drawn) [Compound 599],540 nM
11,O=P([O-])(O)C(C[n+]1cccc(I)c1)P(=O)(O)O (stereo not drawn) [Compound 542],390 nM
12,CC(C)CCc1ccc[n+](CC(P(=O)([O-])O)P(=O)(O)O)c1 (stereo not drawn) [Compound 603],710 nM
